Screen size: about 50,000 compounds; about 800 (1.6%) showed an effect of 50% or more. Some of the results follow.

Drawing on PubChem BioAssay AID1240 (Sanford-Burnham Center for Chemical Genomics, 2008), this text covers displacement for 113 molecules.

The target of this experiment is Bcl-2-like protein 10 (Homo sapiens) (UniProt Q9HD36). Description: TR3 peptide-Bcl-B binding displacers, biochemical primary FP assay, phenotype converters (AID 1240).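 Note: 0% = Bcl-B with tracer peptide and DMSO and 100% = tracer peptide lacking Bcl-B.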 The following applies: GST-Bcl-B / FITC-TR3 peptide fluorescence polarization; stronger effect = higher value; compound at 3.75 mg/L.
Chain of UniProt Q9HD36 (Q9HD36 whole entry, looked up): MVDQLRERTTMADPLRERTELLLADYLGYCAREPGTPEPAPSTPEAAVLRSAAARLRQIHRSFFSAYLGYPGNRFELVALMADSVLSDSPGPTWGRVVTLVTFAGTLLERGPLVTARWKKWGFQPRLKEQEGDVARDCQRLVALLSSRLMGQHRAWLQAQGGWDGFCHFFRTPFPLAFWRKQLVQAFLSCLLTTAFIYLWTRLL
Take `O=[N+]([O-])c1ccccc1C=NN1CCN(Cc2ccccc2Cl)CC1`: the displacement was -10.1%.

`Cc1cccc(NCCCC(=O)N/N=C/c2ccco2)c1`: the displacement came to 1.8%.

With `CC(=C1C(=O)c2ccccc2C1=O)N1CCN(c2ccc([N+](=O)[O-])cc2)CC1`, the displacement turned out to be 11.3%.

On to `O=C(Nc1ccc(O)c(-c2nc3ccccc3o2)c1)c1cc2ccccc2oc1=O`, for which the displacement is -2.6%.

Consider `O=C1NC(c2ccccc2OCc2ccccc2)Nc2sc3c(c21)CCCC3` (stereo not drawn), for which the displacement is -4.7%.

For the molecule `COc1cccc(C(=O)OC2CC(C)N(C)CC2C)c1` (stereo not drawn), the displacement was -12.2%.

For the molecule `CC(C)CC(Nc1c(C(=O)Nc2ccc(Cl)cc2)cc([N+](=O)[O-])cc1[N+](=O)[O-])C(=O)O` (stereo not drawn), the displacement was determined as 21.4%.

As to `Cn1c(SCC(=O)N/N=C/c2cccc(OCc3ccccc3)c2)nc2ccccc21`, the displacement is -2.4%.

Regarding `COc1cccc(/C=C2\N=C(c3ccccc3OC)OC2=O)c1`, the displacement was -6%.

Take `COc1ccc(C(=O)/C=C/c2ccccc2F)cc1OC`: the displacement stood at 5.2%.

For `COCC(=O)Nc1ccc(F)cc1F`, the displacement is -5.1%.

With `CCCc1noc(-c2ccc(-c3ccc(CC)cc3)cc2)n1`, the displacement is -8.7%.

As for `Cc1oc2ccc(OCc3ccc(Cl)cc3)cc2c1C(=O)O`, the displacement turned out to be 6.3%.

Turning to `CCc1nnc(NC(=O)/C=C/c2ccc3c(c2)OCO3)s1`, the displacement turned out to be 29.4%.

As for `O=[N+]([O-])c1ccc(-c2nnc(-c3ccccc3I)o2)cc1`, the displacement worked out at 3.7%.

Consider `Cc1ccc(OCC(=O)NNC(=O)c2cccc(O)c2)c(C)c1`, for which the displacement was -2.4%.

For `CN1CCN(C(=O)c2ccc([N+](=O)[O-])cc2Cl)CC1`, the displacement was -9.7%.

Consider `O=C(NCC1CCNCC1)C(=O)NC1CCCCC1`, for which the displacement was -8.1%.

Turning to `CCc1ccc(-c2[nH]c(=S)[nH]c(=O)c2C#N)cc1`, the displacement was -7.3%.

In the case of `CCOC(=O)c1sc(Nc2ccc(Br)cc2)nc1-c1ccccc1`, the displacement came out at 4.3%.

In the case of `C=CCNC(=O)CN(c1cccc(C(F)(F)F)c1)S(C)(=O)=O`, the displacement amounted to 3.1%.

For `CCOc1ccc(NS(=O)(=O)Cc2ccccc2)cc1`, the displacement stood at 5.4%.

Turning to `Cc1c(C(=O)Nc2ccc3oc(-c4ccc(Cl)cc4Cl)nc3c2)cccc1[N+](=O)[O-]`, the displacement was -5.8%.

Turning to `COc1cccc(C2NC(=O)NC(C)=C2C(=O)Nc2ccccc2OC)c1` (stereo not drawn), the displacement is -15.5%.

In the case of `Cc1ccc(N(CC(=O)NCCCC(C)(C)C2OCCO2)S(=O)(=O)c2ccc(F)cc2)cc1`, the displacement amounted to 3.9%.

In the case of `COc1ccc(S(=O)(=O)N2CCN(Cc3cc(OC)c(OC)cc3OC)CC2)cc1`, the displacement is -4.4%.

Turning to `COc1ccc(-n2nc3ccc(NC(=O)Cc4ccccc4)cc3n2)cc1`, the displacement amounted to 5.1%.

`COC(OC)C12c3ccccc3C(c3ccccc31)C1C(=O)N(Cc3cccnc3)C(=O)C12` (stereo not drawn): the displacement is -5.7%.

On to `Cc1onc(-c2ccccc2Cl)c1C(=O)Nc1sc(C)c(C)c1C#N`, for which the displacement was determined as 13.6%.

`O=C(NCCCn1ccnc1)c1ccc([N+](=O)[O-])cc1Cl`: the displacement was -8%.

Take `O=C1NN(c2ccc(Cl)c(Cl)c2)C(=O)/C1=C/c1cccs1`: the displacement was -0.3%.

Turning to `COc1cc(C(=O)Nc2ccccc2OC(C)C)cc(OC)c1OC`, the displacement came to 12%.

Turning to `O=C(c1ccc(F)cc1)N1CCN(C2CCN(Cc3ccccc3)CC2)CC1`, the displacement is -3.3%.

Consider `Cc1nc2c(C)c(-c3ccccc3)nn2c(C)c1Cl`, for which the displacement was -1%.

For `CCN1C(=O)/C(=C/c2cc(OC)c(O)c(OC)c2)C(=O)NC1=S`, the displacement amounted to 11.6%.

For the molecule `COc1ccc(NC2=C(C(=O)C(F)(F)F)CCCC2)cc1OC`, the displacement was found to be 12.2%.

Turning to `CCc1ccc(NC(=O)c2ccc(C(C)C)cc2)cc1`, the displacement was -0.7%.

Consider `CC(=O)NC(NS(=O)(=O)c1ccccc1)(C(F)(F)F)C(F)(F)F`, for which the displacement was -8.9%.

Turning to `Cn1c(=O)c(C(=O)Nc2ccccc2O)c(O)c2ccccc21`, the displacement was 5.1%.

With `CCOc1cc(C2C3=C(CC(C)(C)CC3=O)Nc3ccccc3N2C(=O)c2ccccc2)ccc1O` (stereo not drawn), the displacement was -11.1%.

For `CCCOc1ccc(-c2ccc(-c3noc(CCC)n3)cc2)cc1`, the displacement is -20.2%.

In the case of `Cc1cc(Cl)cc(SCC(=O)O)c1Cl`, the displacement is -4.6%.

As to `Cc1ccc(/C(N)=N/OC(=O)COc2ccccc2)cc1`, the displacement stood at 11.9%.

In the case of `CCCc1nc2c(C)cc(C)cc2c(N)c1CC`, the displacement is -19.4%.

Regarding `O=C(NNC(=O)C(c1ccccc1)c1ccccc1)c1ccc(Cl)cc1`, the displacement is -7.4%.

Take `CCOC(=O)C(C#N)C1(c2ccc(C)cc2)CCOC(C)(CC)C1` (stereo not drawn): the displacement is -5.7%.

Turning to `CCOc1ccc(NC(=O)C2CC3c4ccccc4C2c2ccccc23)cc1` (stereo not drawn), the displacement is 2.6%.

With `CCCN(CCC)C(=O)c1ccccc1`, the displacement was found to be 9.1%.

Consider `Brc1cc2c(cc1/C=N/Nc1nc3ccccc3s1)OCO2`, for which the displacement turned out to be 0%.

`O=C(Nc1ncc(Cc2ccc(F)cc2)s1)C1CCCCC1`: the displacement was -5.4%.

In the case of `COc1ccc(C(=O)OCC(=O)c2ccc(Br)cc2)cc1OC`, the displacement came to 2.8%.

With `CC(NC(=O)CN1C(=O)c2ccccc2C1=O)c1ccccc1` (stereo not drawn), the displacement was determined as 0.3%.

With `CC1(C)CC(=O)C2=C(C1)Nc1ccccc1NC2c1cccc(F)c1` (stereo not drawn), the displacement is -0.2%.

As to `O=S(=O)(NNc1nc(-c2ccccc2)c2cc(Cl)ccc2n1)c1ccccc1`, the displacement is -3.8%.

Turning to `COc1cc(NC(=O)c2cc3nc(-c4ccccc4)cc(C)n3n2)c(OC)cc1Cl`, the displacement was -12.8%.

Turning to `CCN(CC)C(=O)C12CC3CC(C1)C(=O)C(C3)C2`, the displacement is -1.5%.

Consider `COc1ccc(N(CC(=O)Nc2ccc(OC)cc2OC)S(C)(=O)=O)cc1`, for which the displacement turned out to be 1.7%.

Take `O=C(/C=C/c1ccc(F)cc1)c1ccccc1O`: the displacement was -0.8%.

Regarding `COc1ccc(N2C(=O)CC(Cc3ccc(Cl)cc3)C2=O)cc1` (stereo not drawn), the displacement turned out to be 10.4%.

On to `Cc1ccc(S(=O)(=O)N/N=C/c2cccc(OS(=O)(=O)c3ccc([N+](=O)[O-])cc3)c2)cc1`, for which the displacement was 9.8%.

As to `CCOC(=O)CNC(=O)c1cc(-c2ccccc2)nc2ccccc12`, the displacement is -1%.

Take `CC(C)(C)c1ccc(C(=O)Nc2ccc(NC(=O)c3ccccc3[N+](=O)[O-])cc2)cc1`: the displacement is -0.4%.

Regarding `Cn1ncc(Cl)c1C(=O)N(C(=O)c1c(Cl)cnn1C)c1ccccn1`, the displacement was -2.6%.

Consider `COc1ccc(C2Nc3ccccc3NC3=C2C(=O)CC(c2ccc(Cl)cc2)C3)c(OC)c1OC` (stereo not drawn), for which the displacement turned out to be 5.1%.

As to `CCCOc1ccc(C(=O)N2CCC(C)CC2)cc1`, the displacement worked out at 5.7%.

Consider `CCc1ccc(NC(=O)CC2Nc3ccccc3NC2=O)cc1` (stereo not drawn), for which the displacement is -35.7%.

With `CCCN(CCC)C(=O)c1c(NC(=O)c2ccccc2Cl)sc2c1CCCC2`, the displacement was found to be 7.1%.

For the molecule `COc1ccc2oc(-c3cccc(Br)c3)cc(=O)c2c1`, the displacement was -8.1%.

As to `CC(=O)c1cccc(N=Cc2cc(Br)cc(Br)c2O)c1`, the displacement worked out at 25.8%.

With `O=c1c2ccccc2c(-c2ccccc2)nn1CCc1ccccc1`, the displacement is -10.1%.

Take `CC(C)Oc1cccc(C(=O)Nc2ccc(F)c([N+](=O)[O-])c2)c1`: the displacement came to 17.9%.

On to `CC(=O)c1c(C)nc(-c2ccccc2)nc1NC(=O)C(C)C`, for which the displacement was determined as 10.6%.

Take `COC(=O)c1sccc1NC(=O)c1ccc(OCC(C)C)cc1`: the displacement was found to be 2.1%.

`CC(=O)N1CCN(c2ccc(Cl)cc2[N+](=O)[O-])CC1C` (stereo not drawn): the displacement turned out to be 6.8%.

Take `CC(C)OC(=O)N1C2C=CC(C2)C1(C(F)(F)F)C(F)(F)F` (stereo not drawn): the displacement is -9.2%.

In the case of `Cc1ccc(NC(=O)c2ccc(Oc3ccc([N+](=O)[O-])cc3)cc2)cc1C`, the displacement was -1.8%.

For `Cc1ccccc1C(=O)NN1C(=O)/C(=C/c2cccc(OCc3ccccc3)c2)SC1=S`, the displacement was -43.3%.

For the molecule `Cc1ccc(NC(=O)N2CCOCC2)cc1`, the displacement is -7.5%.

`COc1cc(/C=C(\C#N)C(=O)c2ccccc2)cc(OC)c1OC`: the displacement was -5.6%.

`O=C(N/N=C/c1ccc([N+](=O)[O-])o1)c1ccc(C(F)(F)F)cc1`: the displacement is 0.1%.

With `CCCC1(O)C(C)C(c2ccccc2)NC(c2ccccc2)C1C` (stereo not drawn), the displacement was -4.1%.

`O=C(Cc1ccc([N+](=O)[O-])cc1)Nc1ccc(Cl)c(C(F)(F)F)c1`: the displacement is -6.1%.

As to `CCOC(=O)C(CC#CCN(C)C)(CC#CCN(C)C)C(=O)OCC`, the displacement amounted to 6.1%.

For the molecule `CC(C)OC(=O)C(=O)/C=C1\NC(C)(C)Cc2ccccc21`, the displacement was 6%.

Take `COc1cc(OC)c(C2NC(=S)NC(C)=C2C(=O)Nc2cccc(Cl)c2)cc1OC` (stereo not drawn): the displacement is -3.1%.

For `O=C1C(=O)N(Cc2ccccc2)C2C=CC=CC12` (stereo not drawn), the displacement was -2.3%.

As to `CCCc1ccc(OCc2nnc(NC(=O)Nc3cccc(Cl)c3)s2)cc1`, the displacement was 4.5%.

On to `CCOC(=O)c1sc(NC(=O)c2ccccc2[N+](=O)[O-])nc1C`, for which the displacement is -0.6%.

For `O=c1oc(-c2cccc([N+](=O)[O-])c2)nc2ccc(Br)cc12`, the displacement is 24.5%.

`CCOc1nc(-c2ccccc2)c2cc(C)ccc2n1`: the displacement was 45.2%.

As to `COc1ccc(N2C(=O)/C(=C3/C(=O)N(C)c4ccccc43)SC2=S)cc1`, the displacement is -6.1%.

Take `O=C(NCCc1ccc(F)cc1)C(=O)NC1CC1`: the displacement turned out to be 7.1%.

On to `COc1ccccc1OCC(=O)Nc1ccc(C(C)=O)cc1`, for which the displacement was 3.8%.

For the molecule `O=C1N/C(=N\Nc2ccc([N+](=O)[O-])cc2)S/C1=C/c1ccccc1`, the displacement is -25.2%.

Take `C/C(=N\O)c1ccc2c3c([nH]c2c1)CCCC3`: the displacement amounted to 34.2%.

For `Cc1cc(C)cc(NC(=O)CSc2nc(C)cc(C)n2)c1`, the displacement came out at 5.2%.

Turning to `CC(=O)Nc1ccccc1/C=C/c1ccc2c(C)cc(C)c(O)c2n1`, the displacement came out at 11.9%.

Regarding `COc1cc(NC(=O)CCc2ccccc2)cc(OC)c1`, the displacement is -2.5%.

Consider `O=C1C2=C(Nc3[nH]n(-c4ccccc4)c(=O)c3C2c2ccccc2)c2ccccc21` (stereo not drawn), for which the displacement stood at 11.8%.

On to `CCOc1ccc(NC(=O)C(=O)NCC2CCNCC2)cc1`, for which the displacement came to 2.8%.

On to `Cc1nnc(SCC(=O)Nc2ccc3c(c2)C(=O)c2ccccc2C3=O)s1`, for which the displacement came out at 13.9%.

For the molecule `O=P(COCC1CCCO1)(c1ccccc1)c1ccccc1` (stereo not drawn), the displacement worked out at 15.4%.

Regarding `CCOc1ccccc1N1CCN(C(=O)C(Sc2ccccc2)c2ccccc2)CC1` (stereo not drawn), the displacement is -4.4%.

In the case of `C/C(=C(\C#N)C(=O)NC1CCCCC1)N(C)C`, the displacement was -10.8%.

As to `CCC(Oc1ccccc1)C(=O)Nc1cccc(Br)c1` (stereo not drawn), the displacement was -3.8%.

In the case of `CCc1ccccc1NC(=O)C(=O)NC(C)c1ccccc1` (stereo not drawn), the displacement was -18.2%.

Consider `Nc1nonc1C(=O)N/N=C/c1cccc(O)c1`, for which the displacement worked out at 3.6%.

As for `COc1ccc(OC)c(NC(=O)C2CC2(c2cccc(C)c2)c2cccc(C)c2)c1` (stereo not drawn), the displacement came out at 1.4%.

Regarding `Cc1ccc(NC(=S)NC2CCCCC2)cc1`, the displacement turned out to be 15.4%.

`Cc1ccc(NC(=O)COC(=O)c2ccnn2C)cc1`: the displacement came to 18.4%.

On to `COc1ccc(S(=O)(=O)N(CC(=O)Nc2ccccc2C(F)(F)F)Cc2ccccc2)cc1OC`, for which the displacement came to 8.9%.

`O=S(=O)(c1ccc(Cl)cc1)N1CCN(CCCc2ccccc2)CC1`: the displacement is -7.5%.

Regarding `O=C(/C=C/c1ccccc1)NC(=S)Nc1cccc(Cl)c1`, the displacement worked out at 15.1%.
